# Measurements taken from the supplement of paper PMC8728848.
# The list shows a part of the results.
# Experiments:
# Experiment in all cases: glycan array binding signal (z-score within array); higher = stronger binding
# Details in all cases: glycan notation: IUPAC condensed, linker removed
# [1] = target: GlcNAc(b1-3)Gal(b1-4)GlcNAc(b1-3)Gal(b1-4)GlcNAc(b1-2)Man(a1-3)[GlcNAc(b1-3)Gal(b1-4)GlcNAc(b1-3)Gal(b1-4)GlcNAc(b1-2)Man(a1-6)]Man(b1-4)GlcNAc(b1-4)[Fuc(a1-6)]GlcNAc
# Summary of the method: (§1)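 Glycan array binding is given as a within-array Z-score, which can be read as non-binding when negative. The arrays, 3228 of them, came from the Consortium for Functional Glycomics database and were retained only where the protein sequence was available. Z-scores were averaged across arrays of the same protein sequence at different concentrations or buffers and across linkers.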
# [2] = target: GlcNAc(b1-3)Gal(b1-4)GlcNAc(b1-3)Gal(b1-4)GlcNAc(b1-2)[GlcNAc(b1-3)Gal(b1-4)GlcNAc(b1-3)Gal(b1-4)GlcNAc(b1-6)]Man(a1-6)[GlcNAc(b1-3)Gal(b1-4)GlcNAc(b1-3)Gal(b1-4)GlcNAc(b1-2)Man(a1-3)]Man(b1-4)GlcNAc(b1-4)[Fuc(a1-6)]GlcNAc
# Summary of the method: as §1
# [3] = target: GlcNAc(b1-3)Gal(b1-4)GlcNAc(b1-3)Gal(b1-4)GlcNAc(b1-3)Gal(b1-4)GlcNAc(b1-2)Man(a1-3)[GlcNAc(b1-3)Gal(b1-4)GlcNAc(b1-3)Gal(b1-4)GlcNAc(b1-3)Gal(b1-4)GlcNAc(b1-2)Man(a1-6)]Man(b1-4)GlcNAc(b1-4)GlcNAc
# Summary of the method: as §1
# [4] = target: GlcNAc(b1-3)Gal(b1-4)GlcNAc(b1-3)Gal(b1-4)GlcNAc(b1-3)Gal(b1-4)GlcNAc(b1-2)Man(a1-3)[GlcNAc(b1-3)Gal(b1-4)GlcNAc(b1-3)Gal(b1-4)GlcNAc(b1-3)Gal(b1-4)GlcNAc(b1-2)Man(a1-6)]Man(b1-4)GlcNAc(b1-4)[Fuc(a1-6)]GlcNAc
# Summary of the method: as §1
# [5] = target: GlcNAc(b1-3)Gal(b1-4)GlcNAc(b1-3)Gal(b1-4)GlcNAc(b1-3)Gal(b1-4)GlcNAc(b1-2)[GlcNAc(b1-3)Gal(b1-4)GlcNAc(b1-3)Gal(b1-4)GlcNAc(b1-3)Gal(b1-4)GlcNAc(b1-6)]Man(a1-6)[GlcNAc(b1-3)Gal(b1-4)GlcNAc(b1-3)Gal(b1-4)GlcNAc(b1-3)Gal(b1-4)GlcNAc(b1-2)Man(a1-3)]Man(b1-4)GlcNAc(b1-4)[Fuc(a1-6)]GlcNAc
# Summary of the method: as §1
# [6] = target: GlcNAc(b1-3)Gal(b1-4)GlcNAc(b1-3)Gal(b1-4)GlcNAc(b1-3)Gal(b1-4)GlcNAc(b1-3)Gal(b1-4)GlcNAc(b1-2)Man(a1-3)[GlcNAc(b1-3)Gal(b1-4)GlcNAc(b1-3)Gal(b1-4)GlcNAc(b1-3)Gal(b1-4)GlcNAc(b1-3)Gal(b1-4)GlcNAc(b1-2)Man(a1-6)]Man(b1-4)GlcNAc(b1-4)GlcNAc
# Summary of the method: as §1
# [7] = target: GlcNAc(b1-3)Gal(b1-4)GlcNAc(b1-3)Gal(b1-4)GlcNAc(b1-3)Gal(b1-4)GlcNAc(b1-3)Gal(b1-4)GlcNAc(b1-2)Man(a1-3)[GlcNAc(b1-3)Gal(b1-4)GlcNAc(b1-3)Gal(b1-4)GlcNAc(b1-3)Gal(b1-4)GlcNAc(b1-3)Gal(b1-4)GlcNAc(b1-2)Man(a1-6)]Man(b1-4)GlcNAc(b1-4)[Fuc(a1-6)]GlcNAc
# Summary of the method: as §1
# [8] = target: GlcNAc(b1-3)Gal(b1-4)GlcNAc(b1-3)Gal(b1-4)GlcNAc(b1-3)Gal(b1-4)GlcNAc(b1-3)Gal(b1-4)GlcNAc(b1-2)[GlcNAc(b1-3)Gal(b1-4)GlcNAc(b1-3)Gal(b1-4)GlcNAc(b1-3)Gal(b1-4)GlcNAc(b1-3)Gal(b1-4)GlcNAc(b1-6)]Man(a1-6)[GlcNAc(b1-3)Gal(b1-4)GlcNAc(b1-3)Gal(b1-4)GlcNAc(b1-3)Gal(b1-4)GlcNAc(b1-3)Gal(b1-4)GlcNAc(b1-2)Man(a1-3)]Man(b1-4)GlcNAc(b1-4)[Fuc(a1-6)]GlcNAc
# Summary of the method: as §1
# [9] = target: GlcNAc(b1-3)Gal(b1-4)GlcNAc(b1-3)Gal(b1-4)GlcNAc(b1-3)GalNAc
# Summary of the method: as §1
# [10] = target: GlcNAc(b1-3)Gal(b1-4)GlcNAc(b1-3)GalNAc
# Summary of the method: as §1
# [11] = target: GlcNAc(b1-3)Gal(b1-4)GlcNAc(b1-3)[GlcNAc(b1-3)Gal(b1-4)GlcNAc(b1-3)]GalNAc
# Summary of the method: as §1
# [12] = target: GlcNAc(b1-3)Gal(b1-4)GlcNAc(b1-6)[Gal(b1-3)]GalNAc
# Summary of the method: as §1
# [13] = target: GlcNAc(b1-3)Gal(b1-4)GlcNAc(b1-6)[GlcNAc(b1-3)Gal(b1-3)]GalNAc
# Summary of the method: as §1
# [14] = target: GlcNAc(b1-3)Gal(b1-4)GlcNAc(b1-6)[GlcNAc(b1-3)]Gal(b1-4)GlcNAc
# Summary of the method: as §1
# GlcNAc(b1-3)GalNAc = target: GlcNAc(b1-3)GalNAc
# Summary of the method: as §1
# GlcNAc(b1-3)Man = target: GlcNAc(b1-3)Man
# Summary of the method: as §1
# [15] = target: GlcNAc(b1-3)[GlcNAc(b1-4)][GlcNAc(b1-6)]GlcNAc
# Summary of the method: as §1
# [16] = target: GlcNAc(b1-3)[GlcNAc(b1-6)]Gal(b1-4)GlcNAc
# Summary of the method: as §1
# [17] = target: GlcNAc(b1-3)[GlcNAc(b1-6)]GalNAc
# Summary of the method: as §1
# [18] = target: GlcNAc(b1-4)Gal(b1-4)GlcNAc
# Summary of the method: as §1
# GlcNAc(b1-4)GlcNAc = target: GlcNAc(b1-4)GlcNAc
# Summary of the method: as §1
# [19] = target: GlcNAc(b1-4)GlcNAc(b1-4)GlcNAc
# Summary of the method: as §1
# [20] = target: GlcNAc(b1-4)GlcNAc(b1-4)GlcNAc(b1-4)GlcNAc(b1-4)GlcNAc
# Summary of the method: as §1
# [21] = target: GlcNAc(b1-4)GlcNAc(b1-4)GlcNAc(b1-4)GlcNAc(b1-4)GlcNAc(b1-4)GlcNAc
# Summary of the method: as §1
# [22] = target: GlcNAc(b1-4)[GlcNAc(b1-6)]GalNAc
# Summary of the method: as §1
# [23] = target: GlcNAc(b1-6)Gal(b1-4)GlcNAc
# Summary of the method: as §1
# GlcNAc(b1-6)GalNAc = target: GlcNAc(b1-6)GalNAc
# Summary of the method: as §1
# [24] = target: GlcNAc6S(b1-3)Gal(b1-4)GlcNAc
# Summary of the method: as §1
# Kdn(a2-3)Gal(b1-3)GalNAc = target: Kdn(a2-3)Gal(b1-3)GalNAc
# Summary of the method: as §1
# Kdn(a2-3)Gal(b1-3)GlcNAc = target: Kdn(a2-3)Gal(b1-3)GlcNAc
# Summary of the method: as §1
# Kdn(a2-3)Gal(b1-4)Glc = target: Kdn(a2-3)Gal(b1-4)Glc
# Summary of the method: as §1
# Kdn(a2-3)Gal(b1-4)GlcNAc = target: Kdn(a2-3)Gal(b1-4)GlcNAc
# Summary of the method: as §1
# [25] = target: Kdn(a2-3)Gal(b1-4)[Fuc(a1-3)]GlcNAc
# Summary of the method: as §1
# Kdn(a2-6)Gal(b1-4)GlcNAc = target: Kdn(a2-6)Gal(b1-4)GlcNAc
# Summary of the method: as §1
# [26] = target: Man(a1-2)Man(a1-2)Man(a1-3)Man
# Summary of the method: as §1
# [27] = target: Man(a1-2)Man(a1-2)Man(a1-6)[Man(a1-3)]Man
# Summary of the method: as §1
# Man(a1-2)Man(a1-3)Man = target: Man(a1-2)Man(a1-3)Man
# Summary of the method: as §1
# [28] = target: Man(a1-2)Man(a1-3)[Man(a1-2)Man(a1-6)]Man
# Summary of the method: as §1
binder,measurement,setting,value
LecRKVI.2 (protein) RTTTNFAFRGFNGNQSKIRIEGAAMIKPDGLLRLTDRKSNVTGTAFYHKPVRLLNRNSTNVTIRSFSTSFVFVIIPSSSSNKGFGFTFTLSPTPYRLNAGSAQYLGVFNKENNGDPRNHVFAVEFDTVQGSRDDNTDRIGNDIGLNYNSRTSDLQEPVVYYNNDDHNKKEDFQLESGNPIQALLEYDGATQMLNVTVYPARLGFKPTKPLISQHVPKLLEIVQEEMYVGFTASTGKGQSSAHYVMGWSFSSGGERPIADVLILSELPPPPPNKAKKEGLNS,glycan array binding signal (z-score),[1],-0.243
same,glycan array binding signal (z-score),[2],-0.352
same,glycan array binding signal (z-score),[3],-0.24
same,glycan array binding signal (z-score),[4],-0.127
same,glycan array binding signal (z-score),[5],-0.343
same,glycan array binding signal (z-score),[6],-0.26
same,glycan array binding signal (z-score),[7],-0.217
same,glycan array binding signal (z-score),[8],-0.293
same,glycan array binding signal (z-score),[9],-0.409
same,glycan array binding signal (z-score),[10],-0.317
same,glycan array binding signal (z-score),[11],-0.275
same,glycan array binding signal (z-score),[12],-0.285
same,glycan array binding signal (z-score),[13],-0.401
same,glycan array binding signal (z-score),[14],-0.464
same,glycan array binding signal (z-score),GlcNAc(b1-3)GalNAc,-0.337
same,glycan array binding signal (z-score),GlcNAc(b1-3)Man,-0.381
same,glycan array binding signal (z-score),[15],-0.429
same,glycan array binding signal (z-score),[16],-0.338
same,glycan array binding signal (z-score),[17],-0.399
same,glycan array binding signal (z-score),[18],-0.256
same,glycan array binding signal (z-score),GlcNAc(b1-4)GlcNAc,-0.232
same,glycan array binding signal (z-score),[19],-0.408
same,glycan array binding signal (z-score),[20],-0.311
same,glycan array binding signal (z-score),[21],-0.345
same,glycan array binding signal (z-score),[22],-0.38
same,glycan array binding signal (z-score),[23],-0.104
same,glycan array binding signal (z-score),GlcNAc(b1-6)GalNAc,-0.253
same,glycan array binding signal (z-score),[24],2.01
same,glycan array binding signal (z-score),Kdn(a2-3)Gal(b1-3)GalNAc,-0.27
same,glycan array binding signal (z-score),Kdn(a2-3)Gal(b1-3)GlcNAc,-0.309
same,glycan array binding signal (z-score),Kdn(a2-3)Gal(b1-4)Glc,-0.034
same,glycan array binding signal (z-score),Kdn(a2-3)Gal(b1-4)GlcNAc,-0.49
same,glycan array binding signal (z-score),[25],-0.352
same,glycan array binding signal (z-score),Kdn(a2-6)Gal(b1-4)GlcNAc,-0.147
same,glycan array binding signal (z-score),[26],-0.421
same,glycan array binding signal (z-score),[27],-0.309
same,glycan array binding signal (z-score),Man(a1-2)Man(a1-3)Man,-0.401
same,glycan array binding signal (z-score),[28],-0.363
